Experimental data as given in US8865724B2, “Preparation of 2-methyl-4-amino-5(substituted-1H-1,2,3-triazolyl)methylpyrimidine derivatives and microbicidal activity thereof” (Central China Normal University, priority 2011, dated 2014).

Each molecule was assayed on Tomato Bacterial Leaf Spot (assay: whole plant or invertebrate). Settings: Solanum lycopersicum, read-out: Tomato Bacterial Leaf Spot Average inhibition rate (%).
Text: Testing Materials: Strains: Tomato Bacterial Leaf Spot
(Pseudomonassyringaepv. tomato (Okabe) Young, Dye & Wilkie), Cucumber Angular Leaf Spot, Rice Sheath Blight Disease (Rhizoctonia solani), Corynespora Leaf Spot of Cucumber (Corynespora cassiicola), Downy Mildew of Cucumber (Cucumber Downy Mildew).
Inoculation of the suspension of spore by root irrigation is used for fusarium wilt of cucumber. Strip inoculation is used for Rice Sheath Blight Disease and phytophthora blight of pepper, in which the liquor was sprayed and after 2 hours, inoculation of strips was performed followed by culturing at humidity.

| Molecule | pest or weed control at 500 µg/g [%] |
| --- | --- |
| Cc1ncc(Cn2cc(COC(=O)c3ccc([N+](=O)[O-])cc3)nn2)c(N)n1 [Compound 32] | 70 |
| Cc1ncc(Cn2cc(COC(=O)c3ccc(Cl)cc3)nn2)c(N)n1 [Compound 33] | 70 |
| Cc1ncc(Cn2cc(COC(=O)c3ccc(F)cc3)nn2)c(N)n1 [Compound 34] | 60 |
| Cc1ncc(Cn2cc(COC(=O)c3cc([N+](=O)[O-])cc([N+](=O)[O-])c3)nn2)c(N)n1 [Compound 35] | 80 |
| Cc1ncc(Cn2cc(COC(=O)c3ccccc3Cl)nn2)c(N)n1 [Compound 36] | 80 |
| Cc1ncc(Cn2cc(COC(=O)c3ccccc3F)nn2)c(N)n1 [Compound 37] | 70 |
| Cc1ccc(C(=O)OCc2cn(Cc3cnc(C)nc3N)nn2)cc1 [Compound 38] | 95 |
| Cc1ncc(Cn2cc(COC(=O)c3cccc(Cl)c3)nn2)c(N)n1 [Compound 39] | 80 |

Same assay, conditions: testing concentration of 500 μg/g

| Molecule | Tomato Bacterial Leaf Spot Average inhibition rate (%) |
| --- | --- |
| Zhongshengmycin [reference compound] | 60 |
